Test results as given in the supplement of paper PMC12217912.
Some of the results follow. Sequences were assembled here from the parent chain. Inactive controls read about 0.05.

B1: TEV protease; numbered along this chain (parent)
chain: MGESLFKGPRDYNPISSSICHLTNESDGHTTSLYGIGFGPFIITNKHLFRRNNGTLVVQSLHGVFKVKDTTTLQQHLVDGRDMIIIRMPKDFPPFPQKLKFREPQREERICLVTTNFQTKSMSSMVSDTSCTFPSGDGIFWKHWIQTKDGQCGSPLVSTRDGFIVGIHSASNFTNTNNYFTSVPKNFMELLTNQEAQQWVSGWRLNADSVLWGGHKVFMVKPEEPFQPVKEATQL

Variants of: B1
Assay: raw area under fraction-flipped curve 0-4 h after induction (AUC4h, not background-subtracted), DNA-recorder readout of cleavage of the substrate (dimensionless); higher = more cleavage of the substrate by the protease variant
Conditions: temperature: 34 °C; time window: 0-4 h after rhamnose induction
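Also: Bxb1 expression induced with 0.2% (w/v) L-rhamnose at OD600 near 0.5, cultures sampled hourly, flipped fraction per protease–substrate barcode pair counted by paired-end Illumina sequencing.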

Row | Variant | area with substrate ENLYEQS | area with substrate ENLYHQS | area with substrate ENLYKQS | area with substrate ENLYLQS | area with substrate ENLYMQS | area with substrate ENLYNQS | area with substrate ENLYPQS | area with substrate ENLYQQS | area with substrate ENLYRQS | area with substrate ENLYSQS | area with substrate ENLYVQS | area with substrate ENLYWQS | area with substrate ENLYGQS | area with substrate ENLYIQS | area with substrate ENLYYQS | area with substrate ENLYDQS | area with substrate ENLYTQS
1 | T55R | 0.0592 | 0.0594 | 0.0436 | 0.0819 | 0.0934 | 0.0868 | 0.0454 | 0.0447 | 0.0615 | 0.0776 | 0.0846 | 0.0818 |  |  |  |  | 
2 | W199K | 0.0505 | 0.0606 | 0.0691 |  |  | 0.0572 |  |  |  | 0.0712 |  | 0.0778 | 0.0586 |  |  |  | 
3 | W199A | 0.0556 |  | 0.0691 |  | 0.0647 |  | 0.0702 | 0.0609 | 0.0445 |  |  | 0.0616 |  | 0.0642 |  |  | 
4 | W141L | 0.0409 | 0.0751 | 0.0516 | 0.0546 | 0.0368 | 0.0614 | 0.0469 |  |  |  | 0.053 |  |  |  | 0.0492 |  | 
5 | Q227H | 0.0741 |  | 0.0623 | 0.133 |  | 0.0609 |  | 0.0484 | 0.077 |  |  |  | 0.0738 |  | 0.0551 | 0.0587 | 
6 | P93G | 0.0654 | 0.0624 |  |  | 0.084 | 0.0691 | 0.0781 |  |  | 0.0779 | 0.0499 | 0.0812 | 0.059 |  | 0.056 |  | 0.0755
7 | E231K |  | 0.0746 | 0.114 |  |  |  | 0.0729 |  |  | 0.0972 | 0.11 | 0.0726 | 0.0648 |  |  | 0.0671 | 
8 | E231Y | 0.066 | 0.0689 |  | 0.0781 | 0.0765 | 0.0856 | 0.0613 |  | 0.0683 |  |  | 0.0567 |  |  | 0.0536 | 0.0564 | 0.0588
9 | G214H |  |  |  |  |  |  | 0.0523 |  |  | 0.0578 |  |  | 0.0558 |  |  | 0.0551 | 0.101
10 | G214L | 0.0633 | 0.0694 | 0.0682 | 0.047 | 0.0603 | 0.0651 |  | 0.0372 |  | 0.0557 | 0.0657 |  |  |  |  | 0.0602 | 
11 | H143Q | 0.0612 | 0.0572 | 0.0597 |  | 0.0415 | 0.0553 |  | 0.0433 |  | 0.0537 | 0.0595 |  | 0.0455 | 0.0779 | 0.0516 |  | 0.0537
12 | G153D | 0.0516 | 0.0335 | 0.0509 |  | 0.073 | 0.0303 | 0.0618 |  | 0.0536 |  |  |  | 0.0524 |  |  |  | 
13 | G153A | 0.0472 |  |  | 0.0409 |  | 0.0519 |  |  | 0.0728 |  |  | 0.0412 | 0.0485 | 0.0655 |  |  | 
14 | L156P | 0.0587 | 0.0527 | 0.0553 |  | 0.0583 | 0.058 |  | 0.0614 | 0.0507 | 0.0571 | 0.0539 | 0.0483 | 0.0499 | 0.0527 |  |  | 0.0765
15 | V220H | 0.071 | 0.0597 | 0.0639 | 0.103 | 0.0805 | 0.0713 | 0.0813 | 0.0825 |  | 0.0668 | 0.0494 | 0.0861 | 0.0654 |  | 0.0549 | 0.0605 | 
16 | V165K | 0.0566 | 0.0602 | 0.0609 |  | 0.0416 | 0.0669 | 0.0525 |  | 0.0433 |  | 0.0407 | 0.0476 | 0.0322 |  |  |  | 
17 | V165Q | 0.0725 | 0.0509 |  | 0.0686 |  |  |  |  | 0.0347 |  | 0.0377 | 0.0532 |  |  | 0.047 |  | 
18 | Y179G | 0.0525 |  |  |  | 0.0685 | 0.0439 | 0.0543 | 0.0595 |  | 0.0441 |  |  | 0.0449 |  |  |  | 
